Test results published in publication PMC6753376.
For part of its entries the source gives two or more results. The other results are left out here. An entry can have further records. Some entries list several cross-links; each record is another pair of residues.

Target: CCT8 (UniProt P50990)
Test: cross-linking mass spectrometry
Conditions: lysate

Chain of TCP1 (P17987 whole entry): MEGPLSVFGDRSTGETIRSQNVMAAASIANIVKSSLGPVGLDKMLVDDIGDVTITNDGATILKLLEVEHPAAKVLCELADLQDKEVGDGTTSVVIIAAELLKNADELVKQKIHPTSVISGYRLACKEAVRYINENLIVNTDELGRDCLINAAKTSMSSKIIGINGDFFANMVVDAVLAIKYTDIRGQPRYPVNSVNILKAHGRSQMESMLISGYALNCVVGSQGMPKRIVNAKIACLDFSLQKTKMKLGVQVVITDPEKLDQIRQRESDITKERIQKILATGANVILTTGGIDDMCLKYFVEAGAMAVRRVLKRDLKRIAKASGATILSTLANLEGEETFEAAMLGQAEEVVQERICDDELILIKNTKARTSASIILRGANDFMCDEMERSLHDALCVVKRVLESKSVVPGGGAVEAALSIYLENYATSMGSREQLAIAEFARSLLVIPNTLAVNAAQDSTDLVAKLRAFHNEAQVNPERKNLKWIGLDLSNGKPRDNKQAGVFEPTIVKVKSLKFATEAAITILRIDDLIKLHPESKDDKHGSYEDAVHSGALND
Chain of CCT3 (P49368 whole entry): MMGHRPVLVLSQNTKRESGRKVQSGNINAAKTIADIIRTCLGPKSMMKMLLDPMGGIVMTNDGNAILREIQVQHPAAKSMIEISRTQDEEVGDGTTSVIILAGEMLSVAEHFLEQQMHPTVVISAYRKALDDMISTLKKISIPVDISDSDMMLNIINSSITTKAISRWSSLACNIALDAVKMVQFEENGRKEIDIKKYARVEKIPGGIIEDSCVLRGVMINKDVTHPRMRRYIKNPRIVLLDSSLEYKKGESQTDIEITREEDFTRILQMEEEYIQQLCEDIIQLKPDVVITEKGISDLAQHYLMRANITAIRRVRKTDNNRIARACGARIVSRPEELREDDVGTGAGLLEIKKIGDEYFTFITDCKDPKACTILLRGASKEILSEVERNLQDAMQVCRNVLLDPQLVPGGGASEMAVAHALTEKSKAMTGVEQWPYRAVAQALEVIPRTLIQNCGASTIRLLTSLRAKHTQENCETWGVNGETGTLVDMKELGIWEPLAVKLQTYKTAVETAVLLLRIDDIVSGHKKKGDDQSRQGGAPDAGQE
Chain of CCT6A (P40227 whole entry): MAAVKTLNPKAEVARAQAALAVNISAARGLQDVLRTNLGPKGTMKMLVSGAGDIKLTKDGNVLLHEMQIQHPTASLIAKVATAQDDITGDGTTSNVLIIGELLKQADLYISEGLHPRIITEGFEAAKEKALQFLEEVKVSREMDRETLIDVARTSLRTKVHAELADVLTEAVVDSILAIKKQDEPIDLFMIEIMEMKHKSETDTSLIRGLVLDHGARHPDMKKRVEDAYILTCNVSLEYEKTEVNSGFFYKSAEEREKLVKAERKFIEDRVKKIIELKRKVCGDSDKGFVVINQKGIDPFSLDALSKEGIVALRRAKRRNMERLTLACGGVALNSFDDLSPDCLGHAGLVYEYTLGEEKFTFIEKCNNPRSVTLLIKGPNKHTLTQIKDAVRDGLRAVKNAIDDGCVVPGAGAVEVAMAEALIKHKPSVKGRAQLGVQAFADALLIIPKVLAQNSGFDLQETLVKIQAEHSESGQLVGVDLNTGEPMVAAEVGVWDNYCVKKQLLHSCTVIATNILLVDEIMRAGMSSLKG
Chain of UniProt P50990 (P50990 whole entry): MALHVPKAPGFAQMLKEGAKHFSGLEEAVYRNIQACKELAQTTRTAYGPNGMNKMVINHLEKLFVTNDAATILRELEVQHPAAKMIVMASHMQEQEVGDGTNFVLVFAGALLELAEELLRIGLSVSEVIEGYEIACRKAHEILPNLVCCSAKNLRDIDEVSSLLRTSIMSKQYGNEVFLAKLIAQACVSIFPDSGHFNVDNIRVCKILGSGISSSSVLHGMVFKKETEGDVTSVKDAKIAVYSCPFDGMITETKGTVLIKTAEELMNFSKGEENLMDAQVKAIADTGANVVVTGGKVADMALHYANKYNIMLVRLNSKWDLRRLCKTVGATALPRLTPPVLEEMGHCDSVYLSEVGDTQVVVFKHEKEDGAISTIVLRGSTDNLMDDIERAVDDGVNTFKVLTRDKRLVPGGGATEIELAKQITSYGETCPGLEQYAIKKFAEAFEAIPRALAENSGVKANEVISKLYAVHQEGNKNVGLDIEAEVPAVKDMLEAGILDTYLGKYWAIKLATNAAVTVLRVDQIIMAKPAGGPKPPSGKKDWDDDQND

Row | Substance | cross-linked residues
1 | CCT3, P49368 | K21 - K16 and K21 - K20 and K21 - K459
2 | TCP1, P17987 | K466 - K466 and K494 - K459 and K494 - K466
3 | CCT6A, P40227 | K197 - K400 and K199 - K400 and S200 - K400 and K359 - K326 and K359 - K400
